Measured values from PubChem BioAssay AID485344 (National Center for Advancing Translational Sciences (NCATS), 2010).
Hit rate of the full screen: of about 340,000 compounds, about 6,900 (2%) were called active. No stated cut-off is given here; in the data, active means inhibition above about 30%; inactive means below that, where a call was filed. Only a part is listed here, and it is no random draw. The source gives no active or inactive call for entries shown without one.

What follows are molecules tested against D(2) dopamine receptor (Homo sapiens) (UniProt P14416) (assay: HTS Assay for Allosteric Antagonists of the Human D2 Dopamine Receptor: Primary Screen for Antagonists). Conditions: HEK293 TREx D2 cells, calcium flux, dopamine EC80; at 10 µM; stronger effect = higher value.
How it was run: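 Tetracycline-induced HEK293 TREx cells expressing D2 receptor forced-coupled to calcium signalling, loaded with no-wash calcium dye. Compounds added and calcium flux read 180 s, then dopamine added at EC80 and read a further 180 s.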
Further: 0% is about no effect.

Sequence of UniProt P14416 (P14416 whole entry, looked up): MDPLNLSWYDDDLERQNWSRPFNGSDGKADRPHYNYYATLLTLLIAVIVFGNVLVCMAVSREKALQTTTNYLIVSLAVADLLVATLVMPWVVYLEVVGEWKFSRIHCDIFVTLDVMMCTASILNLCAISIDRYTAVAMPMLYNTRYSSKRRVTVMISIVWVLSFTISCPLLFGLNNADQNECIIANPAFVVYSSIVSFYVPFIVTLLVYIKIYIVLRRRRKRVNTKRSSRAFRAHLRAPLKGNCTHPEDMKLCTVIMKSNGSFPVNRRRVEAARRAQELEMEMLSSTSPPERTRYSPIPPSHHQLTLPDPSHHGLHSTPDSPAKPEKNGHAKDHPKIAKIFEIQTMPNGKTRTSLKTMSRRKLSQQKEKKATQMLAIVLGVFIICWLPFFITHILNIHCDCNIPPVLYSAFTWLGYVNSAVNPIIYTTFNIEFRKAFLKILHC

Compound | inhibition
COc1ccc2cc3cc(C(=O)Nc4cc(C)c(Cl)cc4OC)oc3nc2c1 | 5.46%
CCc1cccc(CC)c1NC(=O)C1CCC(CNS(=O)(=O)c2cccc3nsnc23)CC1 (configuration not stated) | 8.76%
COc1ccc(NC(=O)CSc2oc(-c3ccc(F)cc3)nc2S(=O)(=O)c2ccc(C)cc2)c(OC)c1 | -2.76%
CC(=O)c1cccc(NS(=O)(=O)c2cc(-c3onc(C)c3C)ccc2C)c1 | 0.741%
O=C(NCC(c1cccnc1)N1CCOCC1)c1cccs1 (configuration not stated) | active: 33.7%
CCOC(=O)C1CCN(CCCSc2ccc(Cl)cc2)CC1 | active: 46.1%
Cn1cc(CNCc2ccc(-n3cccn3)cc2)c(-c2ccccc2F)n1 | active: 44.2%
COc1cc(Cl)c(NC(=O)c2cc(S(=O)(=O)N3CCCCC3)c[nH]2)c(OC)c1 | -1.45%
Cc1sc2c(c1C)c(=O)n(-c1ccc(Cl)cc1)c(=O)n2Cc1cc(=O)n2cc(Br)ccc2n1 | -0.45%
Cc1cc(N2CCC(C(=O)Nc3ccc(F)cc3C)CC2)n2nc(C)c(-c3ccc(Cl)cc3)c2n1 | 6.05%
Cc1ccc(N2CC(c3nc(-c4ccc(Cl)cc4)no3)CC2=O)cc1F (configuration not stated) | 11.2%
Cc1cc(-c2ccccc2)n2nc(-c3ccc(Cl)cc3)cc2n1 | 7%
Cc1cc(Br)ccc1NC(=O)C1CCCN(S(=O)(=O)c2cccc3nonc23)C1 (configuration not stated) | 16.3%
CCc1ccc(S(=O)(=O)c2nnn3c2nc(N2CCOCC2)c2sccc23)cc1 | -13.6%
CCOc1cc(/C=C2\SC(=S)N(Nc3ccccc3)C2=O)ccc1O | active: 35.1%
CCOC(=O)c1cccc(NC(=O)CC2C(=O)N(c3ccc(Cl)cc3)C(=O)N2C2CCCC2)c1 (configuration not stated) | -2.5%
Cc1ccc(S(=O)(=O)CCC(=O)Nc2ccc(OC(F)(F)F)cc2)cc1 | -0.637%
Cc1cccc(NC(=O)Cn2ncc3c4ccccc4n(Cc4ccccc4)c3c2=O)c1C | -4.24%
CCc1ccccc1NC(=O)Cn1c(=O)n(CCCCCC(=O)NCc2ccc(C)cc2)c(=O)c2sccc21 | -6.89%
COc1cc(Cl)c(C)cc1NC(=O)CSc1nc2c(c(=O)[nH]1)CCC2 | 11.5%
CCC(Sc1nc2ccncc2[nH]1)C(=O)Nc1cc(Cl)ccc1C (configuration not stated) | -28%
O=C(c1ccc2c(c1)N(Cc1ccccc1F)C(=O)c1ccccc1S2(=O)=O)N1CCc2ccccc21 | 3.54%
COc1ccccc1NC(=O)CSc1nnc(NC(=O)NC2CCCCC2)s1 | -13.9%

Compound | inhibition
Cc1ccc(CNC(=O)C2CCN(S(=O)(=O)c3cccc4nonc34)CC2)cc1 | 3.76%
C=C(C)c1cccc(C(C)(C)NC(=O)NC2CCN(Cc3ccccc3)CC2)c1 | active: 89.2%
COc1ccccc1/C=C/c1nc(C#N)c(N2CCN(C)CC2)o1 | -2.93%
Cc1nn(-c2ccccc2)c2c1cc1c(=O)[nH]c(=O)nc-1n2-c1cccc(Cl)c1 | 1.69%
Cc1cc(=O)c2cc(C(=O)Nc3ccc(C)c(C)c3)ccc2[nH]1 | -3.92%
Cc1cc(NC(=O)Nc2nnc(N(C)C3CCCCC3)s2)ccc1Br | 2.02%
COc1ccc(C(=O)N2CCC(c3nc4ccccc4s3)CC2)cc1Cl | -0.618%
CCc1ccc(NCc2cc3cc4c(cc3n(CC(=O)Nc3ccccc3OC)c2=O)OCCO4)cc1 | 6.03%
Cc1ccc2oc(C(=O)Nc3ccc(S(=O)(=O)N(C)c4ccccc4)cc3)cc(=O)c2c1 | 6.76%
CCc1ccc(NC(=O)C2CCCN2S(=O)(=O)c2ccc3c(c2)n(C)c(=O)c(=O)n3C)cc1 (configuration not stated) | 2.66%
COc1ccccc1CNC(=O)CN(C)c1nn2c(=O)cc(C)nc2s1 | 3.2%
CC(=O)c1ccc(NC(=O)CSc2nnc3ccc(-c4ccc(Br)cc4)nn23)cc1 | 15.6%
COc1ccc2c(c1)cc1c(=O)n(CC(=O)NC(C)C)nc(C)n12 | 9.02%
COc1ccccc1NC(=O)CCC(=O)N1CC(C)Oc2ccc(C)cc21 (configuration not stated) | -23.2%
CC1CCN(S(=O)(=O)c2ccc3c(c2)c(=O)c(C(=O)NCCc2ccccc2)cn3C)CC1 | 9.4%
COc1cccc2cc(C(=O)NCc3ccc(Cl)cc3)c(=N)oc12 | active: 106%
CCCCN1C(=O)c2[nH]nc(-c3ccccc3O)c2C1c1ccc(OCc2ccccc2)cc1 (configuration not stated) | -15.2%
COc1ccc(S(=O)(=O)NCCc2csc3nc(-c4cccc(C)c4)nn23)cc1F | -1.04%
COc1ccccc1CNC(=O)c1c(O)nc2c(C)cccn2c1=O | 12.7%
CN(C)CCNC(=O)c1ccc2c(c1)NC(=O)C(CS(=O)(=O)Cc1cccc(Br)c1)N2 (configuration not stated) | 0.261%
Cc1ccc(-n2c(=O)c3c(cnn3C)n(CC(=O)Nc3ccc(C)cc3C)c2=O)cc1 | 2.48%
CC1=C(C(=O)Nc2ccc(C)cc2C)C(c2ccc([N+](=O)[O-])cc2)n2ncc(C(=O)Nc3ccc(F)cc3)c2N1 (configuration not stated) | -5.34%
Cc1c(C(=O)N2CCC(C)CC2)c(S(=O)(=O)NCc2ccc(Cl)cc2)c(C)n1C | -10.6%

Compound | inhibition
Cc1ccccc1Cc1c(C)nc2nc(SCC(=O)N(C)c3ccccc3)nn2c1C | 10.8%
CN(c1ccc(F)cc1)S(=O)(=O)N1CCCC(C(=O)NCc2cccc(Br)c2)C1 (configuration not stated) | 7.74%
CC(=O)c1ccc(N2CCN(C(=O)CCC(=O)Nc3ccc4nc(N5CCCCC5)cc(C)c4c3)CC2)cc1 | 24.8%
CCOc1ccc(OCC(=O)NCCS(=O)(=O)N2CCN(c3ccccc3F)CC2)cc1 | 12.8%
Cc1ccc(C(=O)c2c(N)c(C(=O)Nc3ccccc3Cl)c3ccccn23)cc1 | -0.0008%
COC(=O)CNC(=O)C1CCN(S(=O)(=O)c2cccc3nsnc23)CC1 | 7.52%
O=C(CN1C(=O)COc2ccc(Cl)cc21)Nc1cccc(F)c1 | -6.88%
Cc1sc2ncn(CC(=O)Nc3cccc(C(F)(F)F)c3)c(=O)c2c1S(=O)(=O)N1CCN(C)CC1 | 6.01%
COc1ccc(S(=O)(=O)Nc2ccc(-c3ccc(N4CCCC4)nn3)cc2)cc1F | 10.1%
Cc1ccc(NC(=O)Cn2c(=O)n(Cc3nc(C)no3)c(=O)c3cc4c(cc32)OCO4)c(C)c1 | 7.27%
N#Cc1nc(COc2cccc(Cl)c2)oc1NCCc1ccccc1 | 1.55%
CCOc1ccccc1C(=O)N(Cc1cc(OC)c(OC)c(OC)c1)c1ccccn1 | 5.25%
CCCn1c(SCc2nc(-c3ccccc3OCC)no2)nnc1-c1ccc(Cl)cc1 | -19.8%
CCc1ccc(-c2cn3c(n2)sc2cc(C(=O)NCCC4=CCCCC4)ccc23)cc1 | -8.15%
CCOC(=O)c1ccc(NC(=O)CSc2cn(CC(=O)N3CCCC3)c3ccccc23)cc1 | -10.4%
CCCOc1ccc(C(=O)Nc2ccc3oc(-c4cccc(Cl)c4Cl)nc3c2)cc1 | -2.55%
CCOC(=O)c1ccc(NC(=O)C(Cc2ccccc2)N2Cc3ccccc3C2=O)cc1 (configuration not stated) | -18.4%
CCn1c(=O)c2sccc2n2c(CCCC(=O)N3CCN(c4cccc(Cl)c4)CC3)nnc12 | 0.57%
COC(=O)c1ccc2c(c1)N(CC(=O)Nc1ccc(OC)c(Cl)c1)C(=O)c1ccccc1S2 | -17.6%
Cc1ccc(-n2nc3c(N4CCCC(C(=O)NCc5ccc(Cl)cc5)C4)nnc(C)c3c2C)cc1 (configuration not stated) | -17.2%
COc1ccc(C(=O)Nc2nc3n(n2)C(c2ccccc2)C=C(c2ccccc2)N3)cc1 (configuration not stated) | 0.107%
O=C(CCS(=O)(=O)c1nc(-c2cccs2)cc(C(F)(F)F)n1)Nc1cc(Br)ccc1O | -9.87%
CC(C)c1ccc(NC(=O)Cn2cc(S(=O)(=O)Cc3cccc(Cl)c3)c3ccccc32)cc1 | -3.7%

Compound | inhibition
Cc1ccccc1C(=O)Nc1sc2c(c1C(=O)N1CCCCC1)CCC(C)C2 (configuration not stated) | 8.42%
COc1cccc(C(=O)N2c3ccc(C)cc3C(C)(c3ccccc3)CC2(C)C)c1 (configuration not stated) | -1.37%
COc1ccc(C2NC(=O)NC(C)=C2C(=O)Nc2ccccc2)cc1OC (configuration not stated) | 6.05%
O=C(CCN1C(=O)c2ccccc2Sc2ncccc21)Nc1ccc(F)cc1F | 13.7%
Cc1ccc(CC(=O)Nc2ccc3c(c2)N(C)C(=O)c2ccccc2S3)cc1 | 9.45%
O=C(NCc1cccnc1)C(=O)NCC(c1cccnc1)N1CCN(c2ccc(F)cc2)CC1 (configuration not stated) | -9.33%
CCCCCc1c(C)nc(N2CCc3ccccc3C2)[nH]c1=O | active: 31.9%
Cc1ccc(Nc2sc(C(=O)c3ccccc3)c(N)c2C(=O)Nc2ccc(Cl)cc2)cc1 | -0.113%
COc1ccc(-c2cn3nc(N4CCCC(C(=O)Nc5cccc(OC)c5)C4)sc3n2)cc1 (configuration not stated) | 4.5%
CCOCCCNC(=O)c1cc(Sc2cccc(Cl)c2)nc2ccccc12 | -15.4%
Cc1ccc(CNC(=O)CCCCCn2c(=O)c3sccc3n(CC(=O)Nc3ccc(C)c(F)c3)c2=O)cc1 | 14.9%
CC(C)CN(CCCNC(=O)c1cc(=O)[nH]c2ccc(S(=O)(=O)N3CCCC3)cc12)CC(C)C | 16.8%
O=C(COC(=O)C1CCCCC1)Nc1ccc([N+](=O)[O-])cc1 | active: 35.3%
CN1CCc2c(sc(NC(=O)CSc3ccc(F)cc3)c2-c2nc3ccccc3s2)C1 | -22.5%
COc1cccc(C(=O)NC(=NCCc2c[nH]c3ccc(OC)cc23)Nc2nc(C)cc(C)n2)c1 | 12.2%
CCN1C(C(=O)c2ccccc2)=C(OC(=O)COc2ccc(OC)cc2)c2ccccc2S1(=O)=O | -6.83%
COc1ccc(NC(=O)c2oc3ccccc3c2NC(=O)C23CC4CC(CC(C4)C2)C3)c(OC)c1 | -7.99%
COc1ccc2c(c1)c(CC(=O)Nc1ccc(C(C)=O)cc1)c(C)n2C(=O)c1ccc(Cl)cc1 | -26.9%
COc1ccc(S(=O)(=O)NCCS(=O)(=O)N2CCN(c3ccccc3)CC2)cc1OC | 2.09%
Cc1ccc(NC(=O)c2oc3ccccc3c2NC(=O)c2ccc(F)c(F)c2)cc1 | -1.89%
CCc1ccc(NC(=O)CSc2nc3c(oc4ccccc43)c(=O)n2-c2cccc(C)c2)cc1 | 5.72%
CCc1cccc(CC)c1NC(=O)C(Cc1ccccc1)NS(=O)(=O)c1cccc2nsnc12 (configuration not stated) | -13.1%
O=C(Nc1nc2ccc(Cl)cc2s1)c1cc(=O)c2ccccc2o1 | 5.98%
